Experimental data as given in PubChem BioAssay AID1508623 (National Center for Advancing Translational Sciences (NCATS), 2021).
Out of some 48,000 compounds screened, about 450 (0.94%) were called active. Another 19% or so got no clear call; they are omitted. The call rests on the fitted dose curve; in most records, active means well fitted inhibition curve with a large enough effect; inconclusive means small, poorly fitted or top-dose-only effect; inactive means no such curve, though single readings can be large or run the other way. The list shows a part of the results.

assay: Primary qHTS for Identification of Small Molecule Inhibitors of Huntingtin Promoter Activity; conditions: HEK293 HTT promoter firefly luciferase reporter (activity 0% = vehicle and -100% = no light), 24 h; series mostly up to 57.5 µM; activity change, negative = inhibition: at the top concentration; further: nearly all actives have a fitted effect of over 50% in size
How it was run: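 HEK293 cells carrying firefly luciferase reporters were seeded at 2,500 per well in Opti-MEM and cultured for 24 h. They were then treated with compounds at up to 57.5 uM final for 24 h at 37 degrees C before Dual-Glo luminescence readout.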
Potency means the concentration at half of the fitted maximal effect.

Row | Structure (SMILES) | activity change, negative = inhibition | Potency
1 | Cc1cc2oc(C(=O)Nc3c(C(=O)Nc4ccccc4)oc4ccccc34)cc(=O)c2cc1C | inactive: -21.1% | –
2 | Cc1cccc(C)c1NC(=O)c1oc2ccc3c(c2c1C)C(=O)CC(C)(C)O3 | inactive: -14.4% | –
3 | Cc1cccn2c(=O)c(C(=O)NCCCN3CCCCC3C)c(O)nc12 (stereo not drawn) | inactive: -13.8% | –
4 | O=C(Cn1ncc2c1-c1ccccc1OC2)N1CCN(c2ccccc2F)CC1 | inactive: -27.3% | –
5 | COc1ccccc1CNC(=O)C1CCCN(S(=O)(=O)c2ccc3c(c2)CCCN3C(C)=O)C1 (stereo not drawn) | inactive: -9.13% | –
6 | CC(=O)NCc1c(I)c(NC(C)=O)c(I)c(C(=O)O)c1I | inactive: 13% | –
7 | N#CCNC(=O)c1ccc(-c2ccnc(Nc3ccc(N4CCOCC4)cc3)n2)cc1 | inactive: 2.56% | –
8 | COc1ccc(N2CCN(C(=O)c3cn(CC(C)C)c(=O)c4c3c3ccccc3n4C)CC2)cc1 | inactive: -18.7% | –
9 | CCc1ccc(-c2nn(CC(=O)Nc3ccccc3)c3c2cnc2ccc(F)cc23)cc1 | inactive: 61.5% | –
10 | CC(C)(C)C1CCc2c(sc(NC(=O)Cn3nnc(-c4ccccc4F)n3)c2C#N)C1 (stereo not drawn) | inactive: -4.6% | –
11 | O=C(Cn1c(=O)c2cccn2c2ccccc21)Nc1cc(F)ccc1F | inactive: -6.45% | –
12 | CCOc1ccc(N(C(=O)Cn2nnc3ccccc32)C(C(=O)NCc2ccccc2)c2ccc(OC)cc2)cc1 (stereo not drawn) | inactive: -5.27% | –
13 | COc1ccc(-c2[nH]ncc2C(=O)NCc2ccccc2C)cc1 | inactive: -21.1% | –
14 | CC(=O)N1CCCc2cc(S(=O)(=O)N3CCC(C(=O)NCc4ccc(C)cc4)CC3)ccc21 | inactive: -11.2% | –
15 | Cc1onc(-c2ccccc2Cl)c1C(=O)Oc1cc(F)cc(F)c1 | inactive: -35.4% | –
16 | COC(=O)c1ccccc1NC(=O)Cn1c(=O)n(-c2cccc(OC)c2)c(=O)c2c(C)c(C(=O)N(C)C)sc21 | inactive: 4.43% | –
17 | CCC(C(=O)NCCc1ccc(SC)cc1)n1nc(C)c2sc3ccccc3c2c1=O (stereo not drawn) | inactive: -19% | –
18 | CCN(CC)CCNC(=O)c1cn(CC)c2ccc(S(=O)(=O)N3CCOCC3)cc2c1=O | inactive: -7.31% | –
19 | Cc1ccc(CCNC(=O)Cn2nc(-c3ccc(C)cc3)ccc2=O)cc1 | inactive: -21.2% | –
20 | COc1ccc(OCC(=O)OCc2cc(=O)n3nc(C4CCCCC4)sc3n2)cc1 | inactive: -13.1% | –
21 | CC(=O)Nc1cccc(NC(=O)C(=O)NCCc2sc(-c3ccccc3)nc2C)c1 | inactive: -22.2% | –
22 | O=C(Cn1ncc2ccc(Cl)cc21)NCc1ccc(F)cc1 | inactive: 12% | –
23 | OCc1c[nH]c2ccccc12 | inactive: -7.84% [at 116 µM] | –
24 | Cc1ccc(C)c(NC(=O)CSc2ncc(S(=O)(=O)c3ccc(C)c(Cl)c3)c(=O)[nH]2)c1 | inactive: -17.5% | –
25 | COCCNCCCn1c(C(=O)CF)c(-c2ccc(C)cc2)c2c(N)ncnc21 | inactive: -5.33% | –

Row | Structure (SMILES) | activity change, negative = inhibition | Potency
26 | COc1ccc(Cn2c(SCc3ccc(C(=O)NC(C)C)cc3)nc3cccnc32)cc1 | inactive: -18.8% | –
27 | C=C1[C@H](n2cnc3c(=O)[nH]c(N)nc32)C[C@H](O)[C@H]1CO | inactive: -1.96% | –
28 | Cc1c(Cl)cccc1NC(=O)Nc1nnc(N2CCCCCC2)s1 | inactive: -11.5% | –
29 | Cc1ccc(C(=O)Nc2cccc(C(=O)O)c2)cc1S(=O)(=O)N1CCCC1 | inactive: 22.9% | –
30 | CCC1CN(C(=O)N2CCC(C(=O)NCc3cccc(C)c3)CC2)c2ccccc2O1 (stereo not drawn) | inactive: -24.9% | –
31 | O=C(Cn1c(=O)nc(-c2ccccc2F)c2cc(Cl)ccc21)N1CCN(c2ccccc2F)CC1 | inactive: -11.2% | –
32 | CCCCC(CC)CNC(=O)CN1C(=O)CSc2ccc(S(=O)(=O)N3CCOCC3)cc21 (stereo not drawn) | inactive: -19.4% | –
33 | CCOc1ccccc1N(CC)C(=O)c1cc2c(=O)[nH]c3ccc(C)cc3c2s1 | – | active: 2510 nM
34 | COc1ccc(CNC(=O)c2c3c(nc4ccccc24)C(=O)N(C2CCCCC2)C3)c(OC)c1 | inactive: -11% | –
35 | O=C(Cn1cc(S(=O)(=O)Cc2cccc(Cl)c2)c2ccccc21)NCCc1ccccc1 | inactive: -1.09% | –
36 | Cc1ccc(NC(=O)/C(C#N)=C/c2ccc(C(C)C)cc2)cc1C | inactive: -13.2% | –
37 | CC(=O)Nc1nonc1-c1nnc(SCC(=O)N(C)c2ccccc2)n1C | inactive: -28.8% | –
38 | COc1ccc(CNC(=O)C(=O)Nc2ccc(OC)cc2OC)cc1 | inactive: -14.6% [at 11.5 µM] | –
39 | Cc1nnc(C(C)C)n1C1C[C@H]2CC[C@@H](C1)N2CC[C@H](NC(=O)C1CCC(F)(F)CC1)c1ccccc1 (stereo partly drawn) | inactive: -1.31% | –
40 | CCOC(=O)c1cnc2c(C)c(Cl)ccc2c1NCCc1ccccc1 | inactive: -13.6% | –
41 | CCOc1cccc(NC(=O)CSc2ncc(-c3ccccc3)[nH]2)c1 | inactive: 20.8% | –
42 | CCCn1cc(S(=O)(=O)c2ccc(CC)cc2)c(=O)c2cc(F)c(N(CC)CC)cc21 | inactive: -2.89% | –
43 | CCOc1ccc(CNC(=O)c2cc(=O)[nH]c3ccc(S(=O)(=O)N4CCCC4)cc23)cc1 | inactive: -2.72% | –
44 | COc1ccc(Cl)cc1CNCCSc1nnnn1C | inactive: 0.769% | –
45 | CC(=O)c1ccc(N2CCN(C(=O)CCCCn3c(=O)[nH]c4ccccc4c3=O)CC2)cc1 | inactive: -16.5% | –
46 | Cc1ccc(NC(=O)CCC(=O)N2Cc3ccccc3Oc3ncccc32)cc1F | inactive: -14% | –
47 | Cc1cccc(Cn2c(=O)n(CCC(=O)NCCc3ccc(Cl)cc3)c(=O)c3sccc32)c1 | inactive: -25.7% | –
48 | Cc1cc(-c2ccc(C)c(S(=O)(=O)NCC3CCN(Cc4ccc(F)cc4)CC3)c2)on1 | inactive: -26% | –
49 | O=C(O)c1c(CNCc2cccc(F)c2)c2ccccc2n1Cc1ccccc1 | inactive: -27.4% | –
50 | O=C(NCC(c1ccc2c(c1)OCO2)N1CCOCC1)C(=O)Nc1cccc(Cl)c1 (stereo not drawn) | inactive: -26.2% | –

Row | Structure (SMILES) | activity change, negative = inhibition | Potency
51 | COc1ccc(OC)c(CNC(=O)c2nn(C)c3c2CSc2ccccc2-3)c1 | inactive: -25.6% | –
52 | CC(=O)c1ccc(NC(=O)c2cc(S(=O)(=O)N3CCCCCC3)cn2C)cc1 | inactive: -8.24% | –
53 | Cc1ccc(NC(=O)CCCc2nnc3n(C)c(=O)c4sccc4n23)cc1F | inactive: -6.12% | –
54 | COc1ccc(-c2nc3c(c(SCC(=O)Nc4ccccc4F)n2)Cc2cc(C)ccc2O3)cc1 | inactive: -2.64% | –
55 | CC(O)Cn1cnc2c1c(=O)n(C)c(=O)n2C (stereo not drawn) | inactive: -6.83% | –
56 | NC(=O)C1(N2CCCCC2)CCN(C(=O)Nc2ccc(F)cc2)CC1 | inactive: 15.2% | –
57 | CCc1ccccc1NC(=O)CN1C(=O)c2ccccc2Sc2ncccc21 | inactive: -24.9% | –
58 | CCCNC(=O)c1ccc2c(c1)sc1nc(-c3ccc(C)cc3)cn12 | inactive: 4.11% | –
59 | O=C(CNC(=O)c1ccccc1)OCc1cc(=O)n2ccsc2n1 | inactive: -9.48% | –
60 | CC1CCn2c(nc3cc(C(=O)NCc4ccccc4)ccc32)C1 (stereo not drawn) | inactive: 37.6% | –
61 | Cc1ccc(C)c(N2CCN(C(=O)C3CCCN(Cc4nc(-c5cccc(Cl)c5)oc4C)C3)CC2)c1 (stereo not drawn) | inactive: -5.15% | –
62 | Cc1cc(C)cc(-n2ccn(CC(=O)Nc3cc(C)ccc3C)c(=O)c2=O)c1 | inactive: -13.1% | –
63 | Cc1cccc(CS(=O)(=O)Cc2ccc(C(=O)NCCc3ccccc3)o2)c1 | inactive: -11.8% | –
64 | Cc1ccc(-c2cn(-c3cccc(Cl)c3)c(S(=O)(=O)CC(=O)Nc3cccc(C)c3)n2)cc1 | inactive: -22.2% | –
65 | CCOC(=O)c1c(S(=O)(=O)N2CCCC(C(=O)NCc3cccc(OC)c3)C2)c(C)n(C)c1C (stereo not drawn) | inactive: -8.35% | –
66 | CCOc1ccc(N2CC(c3nc4ccccc4n3Cc3ccccc3F)CC2=O)cc1 (stereo not drawn) | inactive: -35.4% | –
67 | COc1cccc(OC)c1C(=O)Nc1cccc(-c2cn3ccsc3n2)c1 | inactive: 0.187% | –
68 | CCOC(=O)c1scc(-c2ccc(C)cc2)c1S(=O)(=O)N1CCN(c2ccccc2F)CC1 | inactive: -28.4% | –
69 | Cc1ccc(NC(=O)NCc2cccn2Cc2ccccc2)c(C)c1 | inactive: 7.92% | –
70 | CCCCCSc1ncnc2c1sc1nc(N3CCOCC3)c3c(c12)CCCC3 | inactive: 9.66% | –
71 | CCC(C)NC(=O)Cn1c(=O)n(-c2ccc(C)c(C)c2)c(=O)c2c3c(sc21)CCCCC3 (stereo not drawn) | inactive: -11% | –
72 | CCOc1ccc(OCC)c(NC(=O)c2ccc(-c3ccccc3)s2)c1 | inactive: 6.49% | –
73 | O=C(OOC(=O)c1ccccc1)c1ccccc1 | inactive: -1.93% | –
74 | CCCCc1nn2c(=O)cc(COC(=O)C3CCCCC3)nc2s1 | inactive: -6.55% | –
75 | Cc1nc2nc(SCC(=O)NC3CCC(C)CC3)nn2c(C)c1Cc1ccccc1 (stereo not drawn) | inactive: -16.6% | –

Row | Structure (SMILES) | activity change, negative = inhibition | Potency
76 | COC(=O)c1ccc(-c2nc3cc(NC(C)=O)ccc3o2)cc1 | inactive: 14% | –
77 | Nc1cc(=O)[nH]c(N)n1 | inactive: -2% | –
78 | COc1ccc(-n2c(=O)c3ccccc3n(Cc3cccc(C)c3)c2=O)cc1 | inactive: -17.3% | –
79 | COc1cccc(Cn2c(CNS(=O)(=O)c3ccc(C(C)(C)C)cc3)nc3cccnc32)c1 | inactive: -13% | –
80 | NC(=O)CCCCC1CCSS1 (stereo not drawn) | inactive: 10.5% | –
81 | O=C(Nc1nnc(S(=O)(=O)Nc2ccccc2)s1)C1CCCCC1 | inactive: -27.6% | –
82 | CCCSc1nnc2[nH]c(=O)cc(C)n12 | inactive: -2.85% | –
83 | CCOC(=O)Cn1c(=O)n(CC2CCCO2)c2nc(-c3ccc(C(C)C)cc3)nc(C(N)=O)c21 (stereo not drawn) | inactive: -8.98% | –
84 | Cc1ccccc1N(C)S(=O)(=O)c1nnc(NC(=O)C(C)C)s1 | inactive: -10.1% | –
85 | COc1ccccc1N1CCN(CCCCNC(=O)c2ccc(-c3ccc(C(C)=O)cc3)cc2)CC1 | inactive: -2.1% | –
86 | Cc1ccccc1NC(=O)Cn1c(=O)n(Cc2ccccc2)c(=O)c2sc3ccccc3c21 | inactive: -11% | –
87 | CCOc1ccc(C(=O)NCC(c2ccco2)S(=O)(=O)c2cccs2)cc1 (stereo not drawn) | inactive: -6.93% | –
88 | Cc1ccccc1-c1nn2c(=O)cc(CN3CCN(S(=O)(=O)c4ccc(Cl)cc4)CC3)nc2s1 | inactive: 0.962% | –
89 | COC(=O)c1ccc(C(=O)OC)c(NC(=O)c2cnn3c(C(F)F)cc(-c4ccccc4)nc23)c1 | inactive: -2.58% | –
90 | CCC1CN(C(=O)Nc2ccc(Br)cc2F)c2ccccc2S1 (stereo not drawn) | inactive: 0.357% | –
91 | O=C(NCC(c1ccc(Cl)cc1)N1CCCCC1)c1ccccc1F (stereo not drawn) | inactive: -15.6% | –
92 | COc1ccccc1N1CCN(C(=O)CSc2n[nH]c(-c3ccccc3Cl)n2)CC1 | inactive: -2.32% | –
93 | CCOc1ccc(OCC)c(NC(=O)CCc2nc3cccnc3n2-c2ccccc2)c1 | inactive: -19.5% | –
94 | COC(=O)C(NC(=O)CCc1c(C)nc2c(c(C)nn2-c2ccccc2)c1C)C(C)C (stereo not drawn) | inactive: 4.89% | –
95 | Cc1ccccc1NC(=O)[C@H](CSCc1ccccc1)N1Cc2ccccc2C1=O | inactive: -8.9% | –
96 | C#CCn1c(C2CC(=O)N(c3ccc(OCC)cc3)C2)nc2ccccc21 (stereo not drawn) | inactive: 12.3% | –
97 | CCN(CC)C(=O)C1CCN(c2nnc(C)c3c(C)n(-c4ccc(Cl)cc4)nc23)CC1 | inactive: -10.9% | –
98 | O=C(NCc1ccc(F)cc1)c1cnc(N2CCCCC2)c2ccccc12 | inactive: -21.7% | –
